Assay results from the supplement of paper PMC12217912.
The other results are listed elsewhere or left out. The full chains were built here from the parent and the listed change. Inactive controls read about 0.05.

B1: TEV protease; numbered along this chain (parent)
chain: MGESLFKGPRDYNPISSSICHLTNESDGHTTSLYGIGFGPFIITNKHLFRRNNGTLVVQSLHGVFKVKDTTTLQQHLVDGRDMIIIRMPKDFPPFPQKLKFREPQREERICLVTTNFQTKSMSSMVSDTSCTFPSGDGIFWKHWIQTKDGQCGSPLVSTRDGFIVGIHSASNFTNTNNYFTSVPKNFMELLTNQEAQQWVSGWRLNADSVLWGGHKVFMVKPEEPFQPVKEATQL

Variants of: B1
Experiment: raw area under fraction-flipped curve 0-4 h after induction (AUC4h, not background-subtracted), DNA-recorder readout of cleavage of the substrate (dimensionless); higher = more cleavage of the substrate by the protease variant
Settings: temperature: 34 °C; time window: 0-4 h after rhamnose induction
Protocol: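 In vivo DNA recorder in E. coli TOP10(DE3) ΔrhaA at 34 °C. Each TEVp single-site mutant (parent TEVp 0) is paired with a single-site variant of the 7-mer TEVs (canonical ENLYFQ|S). The substrate sits between flexible linkers in a Bxb1-sfGFP-TEVs-SsrA fusion, so cleavage stabilises Bxb1 and speeds flipping of a recombination array, read by NGS. The value is the raw area under the fraction-flipped curve over 0-4 h after rhamnose induction (AUC4h), with ≥20 reads per time point. It is not background-subtracted; inactive controls average about 0.047.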
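Also: Bxb1 expression induced with 0.2% (w/v) L-rhamnose at OD600 near 0.5, cultures sampled hourly, flipped fraction per protease–substrate barcode pair counted by paired-end Illumina sequencing.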

| Variant | area with substrate ENLYFAS | area with substrate ENLYFCS | area with substrate ENLYFES | area with substrate ENLYFFS | area with substrate ENLYFHS | area with substrate ENLYFIS | area with substrate ENLYFKS | area with substrate ENLYFMS | area with substrate ENLYFNS | area with substrate ENLYFPS | area with substrate ENLYFRS | area with substrate ENLYFSS | area with substrate ENLYFTS | area with substrate ENLYFVS | area with substrate ENLYFLS | area with substrate ENLYFWS | area with substrate ENLYFDS | area with substrate ENLYFGS | area with substrate ENLYFYS |
| --- | --- | --- | --- | --- | --- | --- | --- | --- | --- | --- | --- | --- | --- | --- | --- | --- | --- | --- | --- |
| S26N | 0.0481 | 0.0614 | 0.0653 | 0.0481 | 0.0579 | 0.0543 | 0.0494 | 0.0558 | 0.0612 | 0.0589 | 0.0564 | 0.0847 | 0.0531 | 0.0414 | – | – | – | – | – |
| S26H | 0.046 | 0.0567 | 0.0403 | 0.067 | 0.0644 | – | 0.0581 | 0.0547 | – | 0.0646 | 0.0501 | – | – | – | 0.0752 | 0.0516 | – | – | – |
| S26P | 0.057 | 0.053 | 0.0431 | 0.0551 | 0.0432 | 0.0551 | – | 0.0681 | – | 0.0402 | – | 0.0431 | 0.0516 | 0.0516 | 0.0513 | – | 0.0498 | – | – |
| L22E | 0.0442 | – | 0.049 | 0.0474 | 0.0386 | 0.0476 | 0.0606 | 0.0429 | 0.0442 | 0.0495 | – | 0.0569 | 0.037 | 0.037 | – | 0.0439 | – | 0.0345 | 0.0408 |
| L22P | 0.0451 | 0.0423 | 0.0487 | – | – | 0.0459 | 0.0608 | 0.0408 | – | 0.0438 | 0.056 | 0.023 | 0.0424 | 0.0434 | 0.0435 | 0.0322 | 0.064 | – | 0.0316 |
| L22I | 0.0398 | 0.0631 | 0.0665 | 0.0495 | 0.0573 | 0.0578 | 0.0501 | 0.0624 | 0.0574 | 0.0642 | 0.0612 | 0.0548 | 0.0553 | – | 0.0601 | 0.0512 | – | – | – |
| E25G | 0.0612 | 0.0452 | 0.061 | 0.0483 | 0.0339 | 0.066 | 0.069 | 0.0638 | 0.0574 | 0.054 | 0.0555 | 0.0548 | 0.0649 | 0.0435 | 0.0529 | 0.0432 | 0.0593 | 0.0679 | – |
| E25R | 0.0696 | 0.0591 | 0.0702 | 0.0668 | 0.064 | 0.0572 | 0.0644 | 0.0628 | 0.066 | 0.0513 | 0.0674 | 0.0426 | 0.0456 | 0.0581 | 0.0623 | 0.0503 | 0.0507 | – | – |
| E25N | 0.0548 | 0.0499 | – | 0.0715 | 0.0352 | 0.033 | 0.0574 | 0.0684 | 0.0637 | 0.0567 | 0.0468 | 0.0504 | 0.0686 | – | 0.0651 | – | 0.0523 | – | – |
| E25W | 0.055 | – | 0.0759 | 0.0709 | 0.0438 | 0.0565 | 0.0583 | 0.0306 | 0.0582 | 0.0647 | 0.0543 | 0.0583 | 0.0602 | – | 0.0565 | 0.0601 | 0.0494 | 0.0537 | 0.035 |
| E25Y | 0.0585 | 0.056 | 0.0672 | 0.0703 | – | 0.0488 | 0.0679 | 0.0683 | 0.0773 | 0.0644 | 0.0481 | 0.0525 | 0.0536 | – | 0.059 | 0.0556 | 0.0633 | – | – |
| I15K | 0.0589 | 0.0521 | 0.0514 | 0.0656 | – | 0.0572 | 0.064 | 0.0517 | 0.0569 | 0.0463 | 0.0546 | 0.0412 | – | – | 0.0833 | 0.0743 | 0.0659 | 0.0591 | 0.0429 |
